PubChem BioAssay AID504332 (National Center for Advancing Translational Sciences (NCATS), 2011)
The whole screen tested about 350,000 compounds, of which about 31,000 (8.9%) were called active. The inconclusive results got no clear call from the source; some entries with a clear call stand among them for comparison. Calls follow the shape of the dose curve; as a rule, active = well fitted inhibition curve with a large enough effect; inconclusive = small, poorly fitted or top-dose-only effect; inactive = no such curve, though single readings can be large or run the other way. Potencies beside an inconclusive call are fits to weak or partial responses and may not hold up.

Molecular target: Histone-lysine N-methyltransferase EHMT2 (Homo sapiens) (UniProt Q96KQ7)
UniProt Q96KQ7, sequence (Q96KQ7 whole entry, looked up): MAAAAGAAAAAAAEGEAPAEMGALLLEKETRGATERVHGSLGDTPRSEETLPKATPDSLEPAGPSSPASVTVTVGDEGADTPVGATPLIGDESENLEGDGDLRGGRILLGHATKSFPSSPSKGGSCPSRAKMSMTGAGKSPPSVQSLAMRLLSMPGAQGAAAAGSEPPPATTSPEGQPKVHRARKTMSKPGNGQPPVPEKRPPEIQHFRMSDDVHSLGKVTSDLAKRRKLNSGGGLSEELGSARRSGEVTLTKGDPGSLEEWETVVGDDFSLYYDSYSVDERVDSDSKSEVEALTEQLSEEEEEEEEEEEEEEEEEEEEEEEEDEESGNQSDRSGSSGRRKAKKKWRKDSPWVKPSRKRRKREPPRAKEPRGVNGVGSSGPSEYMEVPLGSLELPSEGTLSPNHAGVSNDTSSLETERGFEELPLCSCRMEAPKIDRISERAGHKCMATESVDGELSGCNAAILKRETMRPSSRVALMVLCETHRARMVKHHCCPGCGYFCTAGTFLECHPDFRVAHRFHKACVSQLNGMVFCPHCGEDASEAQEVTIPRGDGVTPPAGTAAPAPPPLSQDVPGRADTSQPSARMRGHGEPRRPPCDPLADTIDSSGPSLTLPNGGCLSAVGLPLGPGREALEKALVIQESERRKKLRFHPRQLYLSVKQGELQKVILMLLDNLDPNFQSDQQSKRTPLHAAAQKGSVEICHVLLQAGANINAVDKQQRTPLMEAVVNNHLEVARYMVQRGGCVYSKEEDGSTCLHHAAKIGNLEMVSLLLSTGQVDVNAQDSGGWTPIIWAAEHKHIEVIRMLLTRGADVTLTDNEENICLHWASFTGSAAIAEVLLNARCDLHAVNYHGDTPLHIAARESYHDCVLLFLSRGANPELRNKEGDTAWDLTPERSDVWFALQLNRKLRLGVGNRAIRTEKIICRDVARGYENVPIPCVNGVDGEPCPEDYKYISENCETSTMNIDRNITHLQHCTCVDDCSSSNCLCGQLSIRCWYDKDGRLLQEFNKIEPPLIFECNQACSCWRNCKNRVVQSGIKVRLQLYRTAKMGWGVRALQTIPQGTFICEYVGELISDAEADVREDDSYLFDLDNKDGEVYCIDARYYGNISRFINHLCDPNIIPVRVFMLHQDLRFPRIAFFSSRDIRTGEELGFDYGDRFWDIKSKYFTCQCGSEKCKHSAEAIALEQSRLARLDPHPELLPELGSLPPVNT
Assay: qHTS Assay for Inhibitors of Histone Lysine Methyltransferase G9a; also: nearly all actives have a fitted effect of over 75% in size
Conditions: G9a H3K9 monomethylation, AlphaScreen, 2 h; activity, negative = inhibition: at 59 µM (top of the series) unless noted
Method in brief: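 Methyltransferase reactions run at room temperature for 2 h (20 nM enzyme, 500 nM biotin-H3K9 peptide, 20 uM SAM) after a 15 min compound preincubation; product detected by AlphaScreen beads and anti-H3K9me1 antibody.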
% is scaled to controls: 0 for no effect and ±100 for the full control effect; potency is read from the fitted curve at half-maximal effect; tags tell the direction and shape of the fitted curve.

| SMILES | Potency | activity, negative = inhibition |
| --- | --- | --- |
| CCc1ccccc1N1C(=O)CC(Sc2nccc(C)n2)C1=O (stereo unspecified) | inconclusive: 89.1 µM [inhibitor, single point] |  |
| Cn1c(=O)c(=O)n(C)c2cc(N3CCOCC3)c(NS(=O)(=O)c3ccc(Br)cc3)cc21 | active: 35.5 µM |  |
| CCN1CCN(c2ccc(S(=O)(=O)N3CCOCC3)cc2NC(=O)c2ccccc2OC(F)F)CC1 | inconclusive: 20 µM [inhibitor, partial curve, poor fit] |  |
| CCN(CCCNC(=O)C1CCN(S(=O)(=O)CC)CC1)c1ccccc1 | inconclusive: 2.82 µM [inhibitor, partial curve, poor fit] |  |
| COc1ccc(-c2nn(-c3ccccc3)cc2C2NC(=O)NC(C)=C2C(=O)OC(C)C)cc1Cl (stereo unspecified) | inconclusive: 0.355 µM [inhibitor, full curve, poor fit] |  |
| O=C(Nc1ccc2c(c1)OC1(CCCC1)O2)C1CC1 | inconclusive: 100 µM [inhibitor, single point] |  |
| O=C(c1ccco1)N(CCCN1CCOCC1)c1nc(-c2ccc(Cl)cc2)cs1 | inconclusive: 35.5 µM [inhibitor, partial curve, poor fit] |  |
| COc1ccc(C(=O)NC(=S)NC(C)(C)C)cc1Br | inconclusive: 89.1 µM [inhibitor, single point] |  |
| CC(CC(=O)N1CCN(S(=O)(=O)c2ccc(Cl)cc2)CC1)n1cncn1 (stereo unspecified) | inconclusive: 1 µM [inhibitor, partial curve, poor fit] |  |
| O=C(Cn1c(-c2ccccc2)noc1=O)Nc1ccc(N2CCCCCC2)cc1 | inconclusive: 3.98 µM [inhibitor, single point] |  |
| CCOC(=O)c1cc(-c2ccc(F)cc2)n(CCC(=O)Nc2nc3ccc(OC)cc3s2)c1C | inactive |  |
| O=S(=O)(N/N=C1\CCCc2ccccc21)c1ccccc1 |  | inactive: 15.1% [at 12.7 µM] |
| CCCCn1c(N)c(N(CC(C)C)C(=O)C2=NN(c3cc(C)ccc3C)C(=O)CC2)c(=O)[nH]c1=O | inconclusive: 89.1 µM [inhibitor, single point] |  |
| CC(=O)Nc1ccc(NC(=O)C(Cc2ccccc2)NS(=O)(=O)c2ccc3c(c2)oc(=O)n3C)cc1 (stereo unspecified) | inconclusive: 11.2 µM [inhibitor, partial curve] |  |
| COCC(=O)N1CCC(Oc2ccc(C(=O)NCc3cnc(C)cn3)cc2)CC1 | inconclusive: 14.1 µM [inhibitor, partial curve, poor fit] |  |
| O=C(COC(=O)C1CCN(S(=O)(=O)c2ccccc2)CC1)NCCc1ccccc1 |  | inactive: 9.52% [at 12.7 µM] |
